Assay results as given in patent US20220267474A1, “METHODS FOR IMPROVING C[…] TREATING CARDIOVASCULAR DISEASE” (ANTIDOTE THERAPEUTICS, INC., priority 2018, published 2022).

Experiments:
[1] = brain and serum nicotine levels after single nicotine exposure and pretreatment with 8D1-IgG4; format: in vivo; details: rats
From the text: The disclosed anti-nicotine agents sequester nicotine in serum and prevent it from entering into, for example, the brain, where it can produce physiological effects.

[2] = system: nicotine-induced increases in MAP; assay: change in mean arterial pressure before and after nicotine challenge in rats pretreated with 8D1-IgG4; format: in vivo
Procedure: Anti-nicotine antibodies prevent a large increase in mean arterial pressure (MAP) induced by nicotine, when administered prior to nicotine exposure.
Pretreatment with anti-nicotine antibodies prevents large increases in MAP even after repeated administration of nicotine.
(§1) Rats (n=4) were administered a single dose of 8D1-IgG4 in the evening of Day 1, 2, 4, and 8, and a single dose of nicotine each morning for 5 days, and six repeated doses on the 9th day, as shown in the table below.
These effects remained constant even with repeated administration of nicotine. For example, 80 mg/kg 8D1-IgG4 was administered intravenously in the evening before challenge with nicotine. The next day, the same rat was administered 6 nicotine doses (0.03 mg/kg, iv) once an hour for 5 h to simulate heavy smoking (equivalent to 12 cigs). The difference in MAP was measure by taking measurements 2 minutes before vs. 2 minutes after each nicotine dose.

[3] = brain nicotine levels following repeated nicotine exposure after pretreatment with 8D1-IgG4; format: in vivo; details: rats
Procedure: Nicotine concentration in the brain is maintained at low levels by anti-nicotine antibodies even after repeated administration of nicotine which simulates very heavy smoking.
In a follow-up study using the 40 and 80 mg/kg antibody doses and the same nicotine dose, a >90% reduction of nicotine distribution to the brain was maintained even after repeated doses of nicotine (5 repeated doses, one every 10 min for 50 min) simulating very heavy smoking, as shown in FIG. 2. Indeed, at an 80 mg/kg dose of the antibody, brain nicotine levels were reduced by 92% 3 minutes after the fifth dose of nicotine.

[4] = binding affinity (KD) of nicotine-binding antibodies for R-(+)-nicotine
From the text: (§2) Nicotine has two enantiomers: S-(−)-nicotine and R-(+)-nicotine, with the S-enantiomer known to be the most physiologically active. […] For instance, in some embodiments, a nicotine-binding antibody selectively binds to S-(−)-nicotine with a higher affinity than it binds to R-(+)-nicotine, while in some embodiments a nicotine-binding antibody may bind S-(−)-nicotine and substantially not bind to R-(+)-nicotine. […] Alternatively, in some embodiments, a nicotine-binding antibody used as disclosed herein may selectively bind to R-(+)-nicotine with a higher affinity than it binds to S-(−)-nicotine, while in some embodiments a nicotine-binding antibody used as disclosed herein may bind to R-(+)-nicotine and substantially not bind to S-(−)-nicotine.

[5] = enantiomer preference of nicotine-binding antibodies; details: S-(−)-nicotine versus R-(+)-nicotine
From the text: as §2

[6] = 8D1-IgG4 plasma level during repeated iv dosing; format: in vivo; details: rats
Procedure: as §1

B1: 8D1-IgG4: IgG4 (S228P) nicotine-binding antibody, heavy SEQ ID NO: 37, light SEQ ID NO: 38 (antibody)
heavy: QVRLQESGPGLVKPSGTLSLTCAVSGGSIYSSNWWTWVRQPPGKGLEWVGEIHIRGTTYYNPSLNSRVTISLDKSNNQVSLRLTSVTAADSAVYYCVSQEVGGPDLWGQGTLVTVSSASTKGPSVFPLAPCSRSTSESTAALGCLVKDYFPEPVTVSWNSGALTSGVHTFPAVLQSSGLYSLSSVVTVPSSSLGTKTYTCNVDHKPSNTKVDKRV[human IgG4 Fc with S228P (EU numbers) not shown]
light: NFMLTQPHSVSESPGKTVTISCTRSGGSIATYYVQWYQQRPGSAPTNVIYKYDQRPSGVPDRFSGSIDSSSNSASLTISGLKTEDEADYYCQSYDNNIQVFGGGTKLTVLGQPKAAPSVTLFPPSSEELQANKATLVCLISDFYPGAVTVAWKADGSPVKAGVETTKPSKQSNNKYAASSYLSLTPEQWKSHRSYSCQVTHEGSTVEKTVAPTECS
In the case of B1, the “reduction in nicotine levels in the brain” value ([1]; highest antibody dose (40 mg/kg) pretreatment, single 0.03 mg/kg nicotine, sacrificed after 3 minutes) is reported as over 95%, the serum nicotine concentration ([1]; increasing doses of antibody, single nicotine exposure (FIG. 1 top panel)) is reported as “increased serum concentrations of nicotine” and the “increase in MAP after repeated nicotine doses” value ([2]; rat, 80 mg/kg 8D1-IgG4 iv the evening before, 6 nicotine doses 0.03 mg/kg iv once an hour) is reported as “very little increase in MAP”. The “nicotine-induced increases in mean arterial pressure (MAP)” value ([2]; rats, single nicotine dose 0.03 mg/kg iv, MAP 2 minutes before and after nicotine, 0.03 mg/kg) was “significantly blocks nicotine-induced increases in MAP; also recorded: significant dose-dependent attenuation”, the “brain nicotine levels reduced by” value ([3]; 80 mg/kg antibody, 3 minutes after the fifth dose of nicotine) was 92% and the “reduction of nicotine distribution to the brain” value ([3]; 40 and 80 mg/kg antibody, 5 repeated nicotine doses 0.03 mg/kg, one every 10 min) was over 90%. For the same molecule, the Kd [4] was 92 nM, the enantiomer binding preference [5] was “preferentially bind to S-(−)-nicotine” and the “8D1-IgG4 plasma level (AM)” value ([6]; Day 2, after 20 mg/kg iv PM Day 1) was 305 µg/mL. The “8D1-IgG4 plasma level (AM)” value ([6]; Day 3, after 40 mg/kg iv PM Day 2) was 770 µg/mL, the “8D1-IgG4 plasma level (AM)” value ([6]; Day 4) was 550 µg/mL and the “8D1-IgG4 plasma level (AM)” value ([6]; Day 5, after 40 mg/kg iv PM Day 4) was 885 µg/mL. The “8D1-IgG4 plasma level (AM)” value ([6]; Day 9, after 80 mg/kg iv PM Day 8) was 1635 µg/mL.

“Also recorded” adds a separate entry of the source.
